Hit rate of the full screen: of about 110,000 compounds, about 230 (0.21%) showed an effect of 50% or more. The list shows a part of the results.
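Also: 30 min substrate incubation versus DMSO and 10 µM JCP410 controls.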

Sequence of DPAP1 (Q8IIJ9 whole entry, looked up): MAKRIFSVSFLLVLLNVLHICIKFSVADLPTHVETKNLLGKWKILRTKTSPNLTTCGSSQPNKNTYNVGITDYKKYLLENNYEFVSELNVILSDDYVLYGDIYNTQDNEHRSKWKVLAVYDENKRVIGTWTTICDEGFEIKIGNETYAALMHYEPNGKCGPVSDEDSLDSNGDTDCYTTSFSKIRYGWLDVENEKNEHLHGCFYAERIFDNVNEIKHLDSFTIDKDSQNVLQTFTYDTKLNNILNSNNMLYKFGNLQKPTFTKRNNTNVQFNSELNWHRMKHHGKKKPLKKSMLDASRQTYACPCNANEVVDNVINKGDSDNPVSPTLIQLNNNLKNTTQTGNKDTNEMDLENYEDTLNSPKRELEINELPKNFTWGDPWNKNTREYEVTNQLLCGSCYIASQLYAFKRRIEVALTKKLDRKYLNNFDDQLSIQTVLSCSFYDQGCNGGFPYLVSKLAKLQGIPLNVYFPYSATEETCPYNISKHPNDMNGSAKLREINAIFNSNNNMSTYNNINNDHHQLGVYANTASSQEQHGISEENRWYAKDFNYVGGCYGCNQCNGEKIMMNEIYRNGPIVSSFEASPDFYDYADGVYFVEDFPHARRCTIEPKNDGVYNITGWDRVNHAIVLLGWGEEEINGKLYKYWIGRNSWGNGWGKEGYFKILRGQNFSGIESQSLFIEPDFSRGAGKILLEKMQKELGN

This assay concerns the target DPAP1 (Plasmodium falciparum, UniProt Q8IIJ9). Kind of assay: primary screen, percent inhibition; read by cleavage of a fluorogenic dipeptide substrate; higher = more effect of the substance. Set-up: species or system P. falciparum D10 trophozoite lysates; single well. Here is the method: HTS was performed in black 384-well plates. The first and last two columns of each plate contained our negative (DMSO) and positive (10 μM JCP410) controls, and the 20 central columns the test compounds at 10 μM. Compounds were first diluted 50-fold into assay buffer (50 mM sodium acetate, 5 mM MgCl2, 10 mM β-mercaptoethanol, and 0.1% CHAPS, pH 5.5) from a 10 mM DMSO stock plates. One microliter of this 200 μM intermediate stock plate was dispensed into the assay plate. […] After 30 min, the reaction was quenched with 20 μL of 0.5 M acetic acid, and the fluorescent intensity measured at 523 nm (λex = 492 nm) using an Analyst HT multimode plate reader (Molecular Devices).
As to `CN1CC2(C)CN(C)CC(C)(C1)C2O` (stereo not drawn), the “% Inhibition @ 10 uM” value is given as -2.36%.

Take `Cc1ccc(Cn2c(C)c3cnn(CC(=O)NCCc4ccccc4)c(=O)c3c2C)cc1`: the “% Inhibition @ 10 uM” value stood at 1.22%.

`CCC(=O)Nc1nonc1-c1nc2ccccc2n1CC(C)C`: the “% Inhibition @ 10 uM” value is recorded as -2.74%.

With `O=C(O)C1CCCN1S(=O)(=O)c1ccc([N+](=O)[O-])cc1` (stereo not drawn), the “% Inhibition @ 10 uM” value is listed as 4.63%.

As for `O=C(Nc1ccccc1C(=O)O)c1cccc(S(=O)(=O)NCc2ccccc2)c1`, the “% Inhibition @ 10 uM” value was determined as 4.8%.

As for `c1ccc(Cn2nnc3c(NCc4ccc5c(c4)OCO5)ncnc32)cc1`, the “% Inhibition @ 10 uM” value amounted to 2.57%.

Take `CNC(=O)/C(=C\c1ccc2c(c1)OCO2)NC(=O)c1ccc(Br)cc1`: the “% Inhibition @ 10 uM” value is given as 2.38%.

In the case of `CC1CCc2c(sc(N)c2C(=O)Nc2ccccc2)C1` (stereo not drawn), the “% Inhibition @ 10 uM” value worked out at 19.2%.

Turning to `COc1ccc(C(=O)O)cc1OCc1ccc2ccccc2n1`, the “% Inhibition @ 10 uM” value is listed as -9.29%.

For the compound `CC1CCCCN1C(=O)c1cc(-c2ccccc2)nc2ccccc12` (stereo not drawn), the “% Inhibition @ 10 uM” value was -5.92%.

As to `CCOC(=O)c1cc(-c2ccc(OC)c(S(=O)(=O)Nc3ncccc3C)c2)on1`, the “% Inhibition @ 10 uM” value is given as -0.127%.

Consider `CO/C(O)=C1\C(C)=NC(=S)NC1c1cc(OC)c(OC)cc1OC` (stereo not drawn), for which the “% Inhibition @ 10 uM” value is -4.32%.

Turning to `COc1ccc(CN2CCc3ccccc3C2)c(OC)c1C`, the “% Inhibition @ 10 uM” value is reported as -5.41%.

Turning to `CC(C)c1c(C#N)c(N)nc(SCC(=O)c2ccc(-c3ccccc3)cc2)c1C#N`, the “% Inhibition @ 10 uM” value was -0.736%.

Consider `Cc1ccc2oc(=O)c3cnn(CC(=O)NCCN(C)Cc4ccccc4)c3c2c1`, for which the “% Inhibition @ 10 uM” value is reported as -3.45%.

On to `CN1CCCN(C(=O)/C(=C/c2ccco2)NC(=O)c2ccccc2)CC1`, for which the “% Inhibition @ 10 uM” value is reported as -2.8%.

For `CCOCCCNC(=O)N(Cc1ccc(OC)cc1)C1CCN(C(C)=O)CC1`, the “% Inhibition @ 10 uM” value was found to be 2.72%.

Turning to `OCCN(CCO)Cn1c(=S)oc2ccccc21`, the “% Inhibition @ 10 uM” value worked out at 11.6%.

Take `Cc1cccc(N(CC(=O)Nc2cccc(N(C)S(C)(=O)=O)c2)S(=O)(=O)c2ccccc2)c1`: the “% Inhibition @ 10 uM” value is reported as 1.88%.

Consider `OC1(c2ccc(Cl)cc2)CSC2=NCCN21` (stereo not drawn), for which the “% Inhibition @ 10 uM” value worked out at 2.06%.

`CN1CCN(C(=O)/C(=C/c2ccc(F)cc2)NC(=O)c2ccccc2)CC1`: the “% Inhibition @ 10 uM” value is on record as 5.31%.

With `O=S(=O)(c1ccc(F)cc1)N1CCSC1c1ccc(OCc2ccccc2)cc1` (stereo not drawn), the “% Inhibition @ 10 uM” value is 1.63%.

`CN1CCN(c2ccncc2S(=O)(=O)N2CCCCC2)CC1`: the “% Inhibition @ 10 uM” value was -5.21%.

As to `Cc1ccc(C)c(NC(=O)c2c(Cl)cnn2C)c1`, the “% Inhibition @ 10 uM” value is reported as -1.08%.

Take `COc1ccc2cc(Br)ccc2c1CC(=O)Nc1ccccc1F`: the “% Inhibition @ 10 uM” value turned out to be 2.64%.

For `CC(C)OCCCNC(=O)C(=O)NCCc1c[nH]c2ccccc12`, the “% Inhibition @ 10 uM” value is reported as -0.0735%.

As for `COc1ccc2ccccc2c1CN1CCSCC1`, the “% Inhibition @ 10 uM” value stood at 1.26%.

For `COc1ccc(C(=O)Nc2ccc(Cl)cc2Cl)cc1`, the “% Inhibition @ 10 uM” value is 5.09%.

On to `O=C(NCc1ccccc1)c1cc2ncc(Br)cn2n1`, for which the “% Inhibition @ 10 uM” value is 1.87%.

Consider `COCCCNC(=O)Nc1cnc2ccccn2c1=O`, for which the “% Inhibition @ 10 uM” value stood at 0.401%.

Regarding `Cc1c(CO)c2ccccc2n1Cc1ccc(Br)cc1`, the “% Inhibition @ 10 uM” value is listed as 2.1%.

Turning to `NC(=O)c1ccccc1Nc1cccc(Cl)c1`, the “% Inhibition @ 10 uM” value was -0.116%.

Consider `CCOc1ccc(Br)cc1S(=O)(=O)NC1CC(C)(C)NC(C)(C)C1`, for which the “% Inhibition @ 10 uM” value worked out at 0.324%.

For the compound `CC1=C(C#N)c2nc(N)c(C#N)c(C)c2/C1=C/c1cc(Cl)c(OCC(=O)O)c(Cl)c1`, the “% Inhibition @ 10 uM” value is recorded as 20.8%.

For `O=C(NCCCN1CCOCC1)c1cc(-c2ccccc2F)no1`, the “% Inhibition @ 10 uM” value is reported as -3.57%.

Turning to `CCOC(=O)c1c(NC(=O)C(CC)Sc2nc(C)cc(C)n2)sc2c1CCCC2` (stereo not drawn), the “% Inhibition @ 10 uM” value is 5.98%.

As for `COc1ccc(C2=N/C(=C/c3cccnc3)C(=O)O2)cc1Br`, the “% Inhibition @ 10 uM” value is 3.42%.

Turning to `COc1cccc(NC(=O)c2cc(-c3ccco3)nc3ccccc23)c1`, the “% Inhibition @ 10 uM” value was determined as 2.06%.

Regarding `CCOC(=O)C1=C(C)N(c2ccc(C)c(C)c2)C(=O)C1`, the “% Inhibition @ 10 uM” value is given as -2.18%.

For the compound `CC(NC(=O)Cn1ncc2c3ccccc3n(Cc3ccccc3)c2c1=O)c1ccc2c(c1)OCCO2` (stereo not drawn), the “% Inhibition @ 10 uM” value came out at 0.137%.

Turning to `COC(=O)c1cn(CC(=O)N2CCc3ccccc3C2)c2ccccc12`, the “% Inhibition @ 10 uM” value is on record as -5.51%.

Take `Cc1ccc(CCNc2ccccc2)cn1`: the “% Inhibition @ 10 uM” value is listed as -0.744%.

As for `COc1ccc(-n2cc(C(=O)c3cccc(Br)c3)c(C(C)=O)n2)cc1`, the “% Inhibition @ 10 uM” value was -9.59%.

Take `FC(F)(F)c1ccc(Cl)c(N2CC(c3ccccc3)C(c3cccs3)=N2)c1` (stereo not drawn): the “% Inhibition @ 10 uM” value was -1.5%.

As to `CC(Oc1ccc(Cl)cc1Cl)C(=O)Nc1nc2c(s1)C(=O)CC(C)(C)C2` (stereo not drawn), the “% Inhibition @ 10 uM” value is given as -3.27%.

Take `O=C(Nc1ccc2c(c1)OCO2)c1sc2ccccc2c1Cl`: the “% Inhibition @ 10 uM” value is 1.38%.

As to `Cc1cccc(CN2CCN(CC(=O)NCC3COc4ccccc4O3)C2=O)c1` (stereo not drawn), the “% Inhibition @ 10 uM” value is on record as -2.41%.

Consider `CCC(C(=O)N1CCC(C)CC1)n1nc(C)c2sc3ccccc3c2c1=O` (stereo not drawn), for which the “% Inhibition @ 10 uM” value worked out at 1.91%.

Take `COc1ccc(-c2nnc3s/c(=C\c4ccccc4)c(=O)n23)cc1`: the “% Inhibition @ 10 uM” value is recorded as -1.78%.

On to `C=CCOc1ccccc1CN(C)C1CCN(C)CC1`, for which the “% Inhibition @ 10 uM” value came out at 1.74%.

As for `COc1ccc(N2CCN(Cc3cc(OC)c(O)c(OC)c3)CC2)cc1`, the “% Inhibition @ 10 uM” value is listed as -2.81%.

For the origin of these results see article PMC6919601, “Identification of Plasmodium dipeptidyl aminopeptidase allosteric inhibitors by high throughput screening” (PLoS ONE, 2019).
